# According to the BET-seq Pho4 binding data (Le et al. 2018):
# Some of the results follow. The energies were worked out here from pooled read counts, against the library average; single values are noisy.
# Biological target: T1, Pho4 (S. cerevisiae) (UniProt P07270)
# T1 sequence: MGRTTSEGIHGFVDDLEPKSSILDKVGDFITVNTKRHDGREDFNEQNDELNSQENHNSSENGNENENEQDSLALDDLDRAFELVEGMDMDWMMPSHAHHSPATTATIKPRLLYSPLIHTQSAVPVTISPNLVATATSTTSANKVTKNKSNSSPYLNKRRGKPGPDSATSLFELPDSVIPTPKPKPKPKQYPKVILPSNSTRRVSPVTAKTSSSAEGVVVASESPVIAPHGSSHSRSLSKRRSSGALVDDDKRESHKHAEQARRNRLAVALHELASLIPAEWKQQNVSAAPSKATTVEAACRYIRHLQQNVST
# Test: relative binding free energy (BET-seq); higher = weaker binding
# Conditions: reference: library average
row,Sequence,relative binding free energy
1,ACTGCCACGTGGTGGG,-0.18 kcal/mol
2,AATTTCACGTGGAGTG,0.16 kcal/mol
3,TAAGGCACGTGGCGGC,-0.23 kcal/mol
4,CAGCTCACGTGGTGGG,0.11 kcal/mol
5,GTTCTCACGTGTCTTT,0.28 kcal/mol
6,TTGACCACGTGTGCGT,-0.11 kcal/mol
7,GTTGGCACGTGATATA,-0.04 kcal/mol
8,GTCGTCACGTGGCAGT,0.05 kcal/mol
9,ATGAGCACGTGCAGGT,-0.19 kcal/mol
10,AGTTGCACGTGGGTCC,-0.03 kcal/mol
11,GGTGTCACGTGCGGGC,0.02 kcal/mol
12,TTCTGCACGTGGGATA,-0.15 kcal/mol
13,GTGGGCACGTGTGTGT,-0.06 kcal/mol
14,TGATGCACGTGTTCCA,0.24 kcal/mol
15,GTATTCACGTGGGGGC,0.26 kcal/mol
16,TTGTGCACGTGTGAGA,0.17 kcal/mol
17,ATATGCACGTGGTATA,-0.18 kcal/mol
18,TCAGCCACGTGGGTGT,-0.21 kcal/mol
19,TGCGTCACGTGTTCAG,0.14 kcal/mol
20,CGTTTCACGTGTGTAC,0.43 kcal/mol
21,TGGTACACGTGCGTGA,-0.03 kcal/mol
22,TTTGTCACGTGGTTGG,0.07 kcal/mol
23,TGAGGCACGTGGAAGC,-0.09 kcal/mol
24,CGGGTCACGTGGGATG,0.07 kcal/mol
25,ATATACACGTGCTGGT,-0.13 kcal/mol
26,CGAGTCACGTGAGTAG,0.27 kcal/mol

row,Sequence,relative binding free energy
1,TTATGCACGTGTTCAT,-0.24 kcal/mol
2,GGATTCACGTGGATTA,0.21 kcal/mol
3,CGTTTCACGTGATGGG,0.28 kcal/mol
4,TCCAGCACGTGGTTGG,-0.03 kcal/mol
5,GGTTTCACGTGATGTT,0.31 kcal/mol
6,TGAGACACGTGTGGAT,0.12 kcal/mol
7,AAAAGCACGTGGTGGA,-0.08 kcal/mol
8,TTGAACACGTGTTAGT,0.01 kcal/mol
9,AAGAACACGTGTTGGT,0.18 kcal/mol
10,GTGGGCACGTGTAACG,-0.02 kcal/mol
11,AGCTTCACGTGGTGAT,0.12 kcal/mol
12,TATCGCACGTGATATG,0.13 kcal/mol
13,ATTGACACGTGCTGTT,-0.16 kcal/mol
14,TATTACACGTGTATCT,0.05 kcal/mol
15,TGATGCACGTGCGGCG,-0.16 kcal/mol
16,GTTTTCACGTGGGGTC,0.19 kcal/mol
17,TAGAACACGTGTATTG,0 kcal/mol
18,TAGCGCACGTGGGGGC,-0.22 kcal/mol
19,GATTGCACGTGTCGTT,-0.11 kcal/mol
20,ATGCGCACGTGTGGGA,0 kcal/mol
21,AGTTACACGTGTAATT,0.24 kcal/mol
22,ATATTCACGTGTAAGG,0.25 kcal/mol
23,GATGGCACGTGCTAGG,-0.11 kcal/mol
24,TGTGTCACGTGGGCGA,-0.02 kcal/mol
25,TACATCACGTGTTAGT,0.18 kcal/mol
26,GTTATCACGTGTTTTT,0.15 kcal/mol

row,Sequence,relative binding free energy
1,TGTAACACGTGTGATA,0.04 kcal/mol
2,AGGAACACGTGTGGGA,0.02 kcal/mol
3,TTGTTCACGTGAGGAG,0.31 kcal/mol
4,TTTCGCACGTGTATGT,0.02 kcal/mol
5,TATGTCACGTGGGTTT,-0.01 kcal/mol
6,GGGACCACGTGGTTGG,-0.17 kcal/mol
7,GGGTTCACGTGAGTAT,0.39 kcal/mol
8,AAAAGCACGTGGGATG,-0.07 kcal/mol
9,ATTTACACGTGTGGAC,0.3 kcal/mol
10,GGTTTCACGTGGGTAC,0.18 kcal/mol
11,CATGTCACGTGTGTGT,0.14 kcal/mol
12,GGCTTCACGTGGTATA,0.29 kcal/mol
13,TATGTCACGTGGCAAT,0.24 kcal/mol
14,AGGTCCACGTGAGTGT,0.13 kcal/mol
15,GAGAACACGTGCTGTG,0.1 kcal/mol
16,TATTGCACGTGTTCTG,-0.14 kcal/mol
17,GGTAGCACGTGATGTT,0.11 kcal/mol
18,TTGTACACGTGTTAGC,0.06 kcal/mol
19,TAGTTCACGTGATGGT,0.39 kcal/mol
20,GAGGGCACGTGATGGC,0.16 kcal/mol
21,TAAATCACGTGGGGTT,0.07 kcal/mol
22,ATGGTCACGTGACTGG,0.17 kcal/mol
23,GGCGGCACGTGGGAGT,-0.16 kcal/mol
24,GATGACACGTGAGGGA,0.31 kcal/mol
25,AGTGACACGTGGGATT,0 kcal/mol
26,TATATCACGTGAGTAT,0.25 kcal/mol

row,Sequence,relative binding free energy
1,ATGGGCACGTGGCGAT,-0.26 kcal/mol
2,TCGGCCACGTGGGGGA,-0.17 kcal/mol
3,GTGTACACGTGGTTAA,-0.03 kcal/mol
4,GAAGTCACGTGAGGGA,0.29 kcal/mol
5,TGATTCACGTGTGCGA,0.27 kcal/mol
6,TCTCGCACGTGTAGGG,-0.03 kcal/mol
7,ATCGCCACGTGGGTGT,-0.29 kcal/mol
8,GTAGTCACGTGTAGAT,0.28 kcal/mol
9,GGGTGCACGTGTGGGC,0.11 kcal/mol
10,ATGTGCACGTGAGTTT,0.18 kcal/mol
11,AGTATCACGTGTGATT,0.21 kcal/mol
12,GGAGTCACGTGTAGTT,0.25 kcal/mol
13,ATGTACACGTGGGAAG,0.01 kcal/mol
14,TTGTGCACGTGAGGAA,0.19 kcal/mol
15,TGATGCACGTGTAGTA,0.07 kcal/mol
16,TTGTGCACGTGAGCTT,0.19 kcal/mol
17,TATTGCACGTGGTGAT,-0.03 kcal/mol
18,GTGCTCACGTGGTTTA,0.17 kcal/mol
19,GGCGTCACGTGCGTGT,-0.02 kcal/mol
20,TGTTACACGTGCAAGT,0.06 kcal/mol
21,GTTGGCACGTGCGGGC,0.01 kcal/mol
22,AGGAGCACGTGTCGTT,-0.07 kcal/mol
23,TATGCCACGTGTGAGT,0.04 kcal/mol
24,CGTAGCACGTGTGGGA,-0.1 kcal/mol
25,AGTTACACGTGGTGTA,-0.04 kcal/mol
26,TGAGACACGTGTGGTT,-0.03 kcal/mol

row,Sequence,relative binding free energy
1,AAGGTCACGTGGTGTC,-0.06 kcal/mol
2,TATGTCACGTGATTTA,0.2 kcal/mol
3,TTGGTCACGTGGCGAG,0.02 kcal/mol
4,TGGGGCACGTGAGGTA,0.13 kcal/mol
5,ATCGGCACGTGAGATG,0.15 kcal/mol
6,TAGGCCACGTGTTGTA,-0.21 kcal/mol
7,TGTATCACGTGAGAAT,0.26 kcal/mol
8,GGTATCACGTGTAAGT,0.22 kcal/mol
9,TGATTCACGTGGTACT,0.1 kcal/mol
10,GTGGTCACGTGGCTGT,0.11 kcal/mol
11,TTATACACGTGTCAGG,0.19 kcal/mol
12,GAGCGCACGTGGGAGT,-0.17 kcal/mol
13,AAGGGCACGTGTTCTG,-0.18 kcal/mol
14,TGTTCCACGTGTGGGC,0.14 kcal/mol
15,TTGAGCACGTGGGGTC,-0.25 kcal/mol
16,TAGGTCACGTGGGCTA,-0.04 kcal/mol
17,AGGATCACGTGAGGAG,0.31 kcal/mol
18,GAGGTCACGTGTACGG,0.26 kcal/mol
19,TAAGGCACGTGGAGAA,-0.02 kcal/mol
20,AGGGGCACGTGGTCGC,-0.28 kcal/mol
21,AGGGTCACGTGAAGTA,0.29 kcal/mol
22,TACGGCACGTGGAGGA,0.02 kcal/mol
23,ACTTGCACGTGCAGGG,-0.03 kcal/mol
24,GTAAGCACGTGGGATG,-0.13 kcal/mol
25,TTGGTCACGTGCCTTG,-0.12 kcal/mol
26,ATAGTCACGTGGCCGG,0.07 kcal/mol

row,Sequence,relative binding free energy
1,GTTGCCACGTGTATTA,0.1 kcal/mol
2,AAGGCCACGTGTTATG,-0.07 kcal/mol
3,TTGGACACGTGTAGTG,0.06 kcal/mol
4,TGCGGCACGTGTCGGG,-0.08 kcal/mol
5,GAATACACGTGCTTGT,0.19 kcal/mol
6,TGTATCACGTGTATGG,0.14 kcal/mol
7,ATCTACACGTGATTGT,0.19 kcal/mol
8,TCATTCACGTGGAATG,0.33 kcal/mol
9,GCTTTCACGTGGATGG,0.41 kcal/mol
10,ATGGACACGTGCTGGG,-0.03 kcal/mol
11,AATATCACGTGGTGAC,0.44 kcal/mol
12,GGGTACACGTGAATAT,0.36 kcal/mol
13,TGGTACACGTGGAGTA,0.08 kcal/mol
14,GATAACACGTGGTTGG,-0.1 kcal/mol
15,GTTGCCACGTGGTTCG,-0.06 kcal/mol
16,AATGGCACGTGGTCAG,-0.13 kcal/mol
17,TGTAGCACGTGCTAAT,0.07 kcal/mol
18,TGTAGCACGTGCGGAA,-0.15 kcal/mol
19,ATGAACACGTGTGGGC,0.05 kcal/mol
20,GTCAGCACGTGAGGTA,0.19 kcal/mol
21,GGCCTCACGTGGATGT,0.28 kcal/mol
22,CTTTGCACGTGGATGG,-0.06 kcal/mol
23,TTAGACACGTGGTATT,-0.09 kcal/mol
24,TCTGACACGTGGTGCT,-0.04 kcal/mol
25,TTTTTCACGTGGCTTG,0.21 kcal/mol
26,ATTATCACGTGTGTGA,0.16 kcal/mol

row,Sequence,relative binding free energy
1,GCGGGCACGTGGGCGA,-0.29 kcal/mol
2,TTAGGCACGTGATCCG,-0.04 kcal/mol
3,AGGTACACGTGTTCGG,0.01 kcal/mol
4,TTTCACACGTGTGTGA,0 kcal/mol
5,GTGTGCACGTGCGACG,0.06 kcal/mol
6,AGTGGCACGTGAGTCA,0.14 kcal/mol
7,ATTGTCACGTGTATGC,-0.01 kcal/mol
8,GTTAGCACGTGCAGGT,0 kcal/mol
9,ATTTGCACGTGGCTTT,-0.04 kcal/mol
10,AGCGACACGTGGTTGT,-0.06 kcal/mol
11,GTGGTCACGTGGGCTA,-0.09 kcal/mol
12,GGTAGCACGTGCTATG,-0.05 kcal/mol
13,TGTGTCACGTGGGGAG,0.01 kcal/mol
14,GGGTGCACGTGTAGCA,0.03 kcal/mol
15,GTGATCACGTGCTAGG,0.01 kcal/mol
16,TAGAGCACGTGTAGTG,-0.08 kcal/mol
17,CGGGACACGTGTTGTT,0.2 kcal/mol
18,TTGGGCACGTGGTCAA,-0.21 kcal/mol
19,TTTGACACGTGTGGGA,0.09 kcal/mol
20,TGCGTCACGTGTGGTC,-0.06 kcal/mol
21,CACGGCACGTGTTGTG,-0.04 kcal/mol
22,TATTGCACGTGAGCGG,0.15 kcal/mol
23,ACGGGCACGTGTGAAG,-0.07 kcal/mol
24,TTTATCACGTGTGAAA,0.25 kcal/mol
25,GTAATCACGTGTGAGG,0.23 kcal/mol
26,TAGGACACGTGTTTAT,0.02 kcal/mol

row,Sequence,relative binding free energy
1,AGTGGCACGTGGCGGA,-0.21 kcal/mol
2,TATTGCACGTGTAAAA,0.06 kcal/mol
3,ATTGACACGTGGTGGG,-0.08 kcal/mol
4,GTAGTCACGTGGTAGG,0.12 kcal/mol
5,TTGGGCACGTGAATGG,0.14 kcal/mol
6,TAACGCACGTGGTTTT,-0.08 kcal/mol
7,AGGGGCACGTGCGATT,-0.23 kcal/mol
8,AATATCACGTGGTTGT,0.17 kcal/mol
9,CGGGGCACGTGTTATA,-0.19 kcal/mol
10,GATTGCACGTGTTCTG,-0.03 kcal/mol
11,TTCATCACGTGGCGTT,0.19 kcal/mol
12,GATGTCACGTGTGATC,0.29 kcal/mol
13,TTTTACACGTGAGGAT,0.33 kcal/mol
14,GTTTTCACGTGAAAAT,0.41 kcal/mol
15,TTGGACACGTGGGCTA,0.05 kcal/mol
16,GGAATCACGTGAAGGA,0.56 kcal/mol
17,TTGGGCACGTGTTTCT,-0.15 kcal/mol
18,TGGGTCACGTGTTCGC,0.16 kcal/mol
19,ATTCTCACGTGGGGGG,0.14 kcal/mol
20,TCTGTCACGTGGTAAA,0.11 kcal/mol
21,ATTTTCACGTGTTGCT,0.23 kcal/mol
22,TGTAGCACGTGGTTCT,-0.22 kcal/mol
23,CTTATCACGTGGTTTA,0.02 kcal/mol
24,TAATGCACGTGAAGGA,0.27 kcal/mol
25,TGGTGCACGTGTAGTT,0.13 kcal/mol
26,ACTGTCACGTGGGTGT,-0.01 kcal/mol

row,Sequence,relative binding free energy
1,ATTAACACGTGCGTGT,-0.13 kcal/mol
2,TTTTTCACGTGGAATA,0.33 kcal/mol
3,AGGAACACGTGGTATG,-0.15 kcal/mol
4,GTAATCACGTGTGTGC,0.31 kcal/mol
5,GGCGACACGTGTGGGC,0.19 kcal/mol
6,CTTCACACGTGGGGGA,0.05 kcal/mol
7,GCTTACACGTGTAGTT,0.19 kcal/mol
8,TAAGTCACGTGCGTTG,0.06 kcal/mol
9,TGGGCCACGTGGGGCG,-0.25 kcal/mol
10,TTGATCACGTGTCTAT,0.11 kcal/mol
11,ATAGACACGTGTGTGC,0.03 kcal/mol
12,GGGGGCACGTGCGATA,-0.04 kcal/mol
13,TTTGTCACGTGAGATC,0.32 kcal/mol
14,AGGTACACGTGGTCTT,-0.02 kcal/mol
15,TCAGCCACGTGGGGGG,-0.15 kcal/mol
16,GGAGGCACGTGGGTTA,-0.16 kcal/mol
17,TCGCTCACGTGAGGTT,0.43 kcal/mol
18,CTGGACACGTGTTTTG,-0.07 kcal/mol
19,ACGTGCACGTGTATGG,-0.08 kcal/mol
20,TGGGCCACGTGGCTTT,-0.1 kcal/mol
21,ATAAACACGTGTTTTG,0.03 kcal/mol
22,GGTTTCACGTGAGGAC,0.56 kcal/mol
